In the RNAGym collection of RNA variant scans (doi:10.1073/pnas.2313332121):
Variants at the floor of the assay are shown more often than the library holds them.

B1: TPR 5TU (parent)
chain: GGAUCUUCUCGAUCUAACAAAAAAGACAAAUCUGCCACAAAGCUUGAGAGCAUCUUCGGAUGCAGAGGCGGCAGCCUUCGGUGGCGCGAUAGCGCCAACGUUCUCAACUAUGACACGCAAAACGCGUGCUCCGUUGAAUGGAGUUUAUCAUG

Variants of: B1
Assay: polymerase ribozyme fitness, log enrichment relative to wild type (log ratio); higher = more active; in vitro selection for triplet polymerase activity
In short: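 Only genotypes with ≥10 input reads and ≥1 read per output were kept after Illumina sequencing of input and output libraries. These libraries were PCR-built, transcribed mutants of each subunit of a heterodimeric triplet polymerase ribozyme, each put through one triplicate in vitro selection round with frozen incubation at −7 °C, gel excision of extended constructs, streptavidin-bead capture and RT-PCR. Fitness is a logarithmic ratio of genotype enrichment to wild-type enrichment, from inverse-variance-weighted replicate averages, with the logarithm in base 2.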

Which “polymerase ribozyme fitness (log ratio)” value does the source give for A21G G88U A97G C103G U144A here?
Its value is at most -4.2.

Which “polymerase ribozyme fitness (log ratio)” value does the source give for A21G G94A here?
Its value is -1.01.

For A21G G94U A115G A138U G141A G143C, which “polymerase ribozyme fitness (log ratio)” value is on record?
Its value is at most -4.2.

With A21G U45A G100A A122C as the variant, how does the “polymerase ribozyme fitness (log ratio)” value read?
The value was at most -4.2.

For A21G U53A U77G U134G U139A, which “polymerase ribozyme fitness (log ratio)” value is on record?
Its value is at most -4.2.

With A21G U55A A73U C75A G94C C118G as the variant, how does the “polymerase ribozyme fitness (log ratio)” value read?
Its value is at most -4.2.

With A21G U56C C93U as the variant, how does the “polymerase ribozyme fitness (log ratio)” value read?
The value was -0.835.

Which “polymerase ribozyme fitness (log ratio)” value does the source give for A21G U61G U90A A91U A115G here?
Its value is at most -4.2.

Which “polymerase ribozyme fitness (log ratio)” value does the source give for A21G U151C here?
Its value is -3.8.

Which “polymerase ribozyme fitness (log ratio)” value does the source give for A21U A23G A28C G59A C76G U90G C114U G141C here?
Its value is at most -4.2.

Which “polymerase ribozyme fitness (log ratio)” value does the source give for A21U A23U A47C G83A A137U here?
The value was at most -4.2.

With A21U A23U U33G A89C A98U C103U as the variant, how does the “polymerase ribozyme fitness (log ratio)” value read?
The value was at most -4.2.

Which “polymerase ribozyme fitness (log ratio)” value does the source give for A21U A24C U33C G94A A107C here?
Its value is at most -4.2.

Which “polymerase ribozyme fitness (log ratio)” value does the source give for A21U A24U A64C U101G A110G A138C U145A here?
Its value is at most -4.2.

With A21U A24U C32G C38G G126U A138G as the variant, how does the “polymerase ribozyme fitness (log ratio)” value read?
Its value is at most -4.2.

For A21U A24U C57G C93A U102G G124A U134C, which “polymerase ribozyme fitness (log ratio)” value is on record?
The value was at most -4.2.

Which “polymerase ribozyme fitness (log ratio)” value does the source give for A21U A24U G70C G92U G143U A150U here?
Its value is at most -4.2.

For A21U A26G G71A C125U, which “polymerase ribozyme fitness (log ratio)” value is on record?
The value was at most -4.2.

With A21U A26U A28U G67A G88A A122U as the variant, how does the “polymerase ribozyme fitness (log ratio)” value read?
The value was at most -4.2.

For A21U A28G G48A G50A G84U A97G C108G, which “polymerase ribozyme fitness (log ratio)” value is on record?
Its value is at most -4.2.

For A21U A29U G42A C96U A120G G136C, which “polymerase ribozyme fitness (log ratio)” value is on record?
The value was at most -4.2.

For A21U A30G A52C U55G C87U A89U C116A, which “polymerase ribozyme fitness (log ratio)” value is on record?
The value was at most -4.2.

For A21U A30G C57U A91U U104A G126A, which “polymerase ribozyme fitness (log ratio)” value is on record?
Its value is at most -4.2.

Which “polymerase ribozyme fitness (log ratio)” value does the source give for A21U A30G G59C A60U C93U C103G C125G U148A here?
Its value is at most -4.2.

With A21U A30G U31A C51U C95A C103G A110C G136U as the variant, how does the “polymerase ribozyme fitness (log ratio)” value read?
The value was at most -4.2.

For A21U A37G C75U C87U, which “polymerase ribozyme fitness (log ratio)” value is on record?
Its value is at most -4.2.

For A21U A37G U55G A60C U77G A97G, which “polymerase ribozyme fitness (log ratio)” value is on record?
The value was at most -4.2.

Which “polymerase ribozyme fitness (log ratio)” value does the source give for A21U A39C C57U A97G here?
Its value is -2.62.

With A21U A39G G62U G67U C93U G133C as the variant, how does the “polymerase ribozyme fitness (log ratio)” value read?
Its value is at most -4.2.

For A21U A41C G42U C87U C99U U104G C116A C132G, which “polymerase ribozyme fitness (log ratio)” value is on record?
The value was at most -4.2.

For A21U A47C G48C G84U G141C U146C, which “polymerase ribozyme fitness (log ratio)” value is on record?
Its value is at most -4.2.

With A21U A49C C99U U139A C149U as the variant, how does the “polymerase ribozyme fitness (log ratio)” value read?
The value was at most -4.2.

With A21U A52C C85U C99G G128A A142C as the variant, how does the “polymerase ribozyme fitness (log ratio)” value read?
The value was at most -4.2.

With A21U A52G C76A G81C C87G C114U A121C U146A as the variant, how does the “polymerase ribozyme fitness (log ratio)” value read?
The value was at most -4.2.

With A21U A73U C116A U134A G141C A150G as the variant, how does the “polymerase ribozyme fitness (log ratio)” value read?
The value was at most -4.2.

For A21U A91G C93A U101C U148G, which “polymerase ribozyme fitness (log ratio)” value is on record?
The value was at most -4.2.

With A21U A113U A137G U144A as the variant, how does the “polymerase ribozyme fitness (log ratio)” value read?
The value was -3.99.

For A21U C27U C35A C57A G59C G74C G86U A89G U101G, which “polymerase ribozyme fitness (log ratio)” value is on record?
Its value is at most -4.2.

With A21U C36A C75G C85A A89G A115U as the variant, how does the “polymerase ribozyme fitness (log ratio)” value read?
Its value is at most -4.2.

With A21U C38A as the variant, how does the “polymerase ribozyme fitness (log ratio)” value read?
The value was 0.268.

With A21U C43A G81U G86A C96G as the variant, how does the “polymerase ribozyme fitness (log ratio)” value read?
The value was at most -4.2.

With A21U C54A C96U as the variant, how does the “polymerase ribozyme fitness (log ratio)” value read?
The value was -2.01.

With A21U C57A A107C A122G C123U U135C U145A as the variant, how does the “polymerase ribozyme fitness (log ratio)” value read?
Its value is at most -4.2.

For A21U C69U A91U U127A G141A C149A, which “polymerase ribozyme fitness (log ratio)” value is on record?
The value was at most -4.2.

Which “polymerase ribozyme fitness (log ratio)” value does the source give for A21U C69U C87U C96A here?
Its value is -1.14.

For A21U C76G C114U, which “polymerase ribozyme fitness (log ratio)” value is on record?
Its value is at most -4.2.

With A21U C79G as the variant, how does the “polymerase ribozyme fitness (log ratio)” value read?
Its value is -3.91.

With A21U C93G as the variant, how does the “polymerase ribozyme fitness (log ratio)” value read?
The value was -2.5.

Which “polymerase ribozyme fitness (log ratio)” value does the source give for A21U C96A A106G G128C G133U here?
Its value is at most -4.2.

For A21U C96A A110G C116U U145G, which “polymerase ribozyme fitness (log ratio)” value is on record?
Its value is at most -4.2.

Which “polymerase ribozyme fitness (log ratio)” value does the source give for A21U C96U A113U here?
Its value is -2.6.

Which “polymerase ribozyme fitness (log ratio)” value does the source give for A21U G25C A29U U33A A37U A66C G70C G88U G124U here?
The value was at most -4.2.

For A21U G25U G84A C93G U127A U135C, which “polymerase ribozyme fitness (log ratio)” value is on record?
Its value is at most -4.2.

For A21U G34C C99A C116A, which “polymerase ribozyme fitness (log ratio)” value is on record?
Its value is at most -4.2.

With A21U G34U C93G G94A G140C as the variant, how does the “polymerase ribozyme fitness (log ratio)” value read?
Its value is at most -4.2.

Which “polymerase ribozyme fitness (log ratio)” value does the source give for A21U G50A C54G G70C U77G G92A U134C U144G here?
The value was at most -4.2.

Which “polymerase ribozyme fitness (log ratio)” value does the source give for A21U G50A C57G C96G C108U U148C G152A here?
Its value is at most -4.2.

For A21U G58A U77A, which “polymerase ribozyme fitness (log ratio)” value is on record?
Its value is at most -4.2.

For A21U G65C G92A A137C G141C, which “polymerase ribozyme fitness (log ratio)” value is on record?
The value was at most -4.2.

Which “polymerase ribozyme fitness (log ratio)” value does the source give for A21U G67C C69G C79A C96U C129U here?
The value was at most -4.2.

Which “polymerase ribozyme fitness (log ratio)” value does the source give for A21U G71C C79G A107U A142C here?
The value was at most -4.2.

Which “polymerase ribozyme fitness (log ratio)” value does the source give for A21U G71C C93A here?
The value was at most -4.2.

For A21U G86A, which “polymerase ribozyme fitness (log ratio)” value is on record?
The value was -0.555.

Which “polymerase ribozyme fitness (log ratio)” value does the source give for A21U G128A here?
Its value is -3.26.

For A21U U31C A73G G94U A113U, which “polymerase ribozyme fitness (log ratio)” value is on record?
The value was -3.49.

With A21U U31G G34U G48U C76A G86A G88A G143C as the variant, how does the “polymerase ribozyme fitness (log ratio)” value read?
The value was at most -4.2.

With A21U U33A A40U G58A C85G A98C A106U G126C as the variant, how does the “polymerase ribozyme fitness (log ratio)” value read?
The value was at most -4.2.

With A21U U82G C93U U135G U148G as the variant, how does the “polymerase ribozyme fitness (log ratio)” value read?
The value was at most -4.2.

Which “polymerase ribozyme fitness (log ratio)” value does the source give for A21U U90A C95U U134G here?
Its value is at most -4.2.

For A22C A23G C54U, which “polymerase ribozyme fitness (log ratio)” value is on record?
Its value is at most -4.2.

For A22C A24U C63A G71A C108G G117U, which “polymerase ribozyme fitness (log ratio)” value is on record?
The value was at most -4.2.

With A22C A26G A28C C43U C95G C96A A150U as the variant, how does the “polymerase ribozyme fitness (log ratio)” value read?
Its value is at most -4.2.

For A22C A26U U33G G34A U55A A73U U77G G86A G143A, which “polymerase ribozyme fitness (log ratio)” value is on record?
The value was at most -4.2.

Which “polymerase ribozyme fitness (log ratio)” value does the source give for A22C A28C U53G G74A G83C C85U here?
Its value is at most -4.2.

Which “polymerase ribozyme fitness (log ratio)” value does the source give for A22C A28U C36U G67U C118G here?
Its value is at most -4.2.

For A22C A28U C63G C87U G88C A142C, which “polymerase ribozyme fitness (log ratio)” value is on record?
The value was at most -4.2.

With A22C A28U C105U C123U as the variant, how does the “polymerase ribozyme fitness (log ratio)” value read?
Its value is at most -4.2.

For A22C A29G G84A G86U C99A, which “polymerase ribozyme fitness (log ratio)” value is on record?
The value was at most -4.2.

Which “polymerase ribozyme fitness (log ratio)” value does the source give for A22C A30C G50C C75G C99A A121G C132A here?
The value was at most -4.2.

With A22C A30G U53G C76G C85A C95U C105U G124C A142U C149G as the variant, how does the “polymerase ribozyme fitness (log ratio)” value read?
The value was at most -4.2.

For A22C A30U C76A G124A, which “polymerase ribozyme fitness (log ratio)” value is on record?
The value was at most -4.2.

For A22C A37C, which “polymerase ribozyme fitness (log ratio)” value is on record?
Its value is -0.165.

For A22C A37C G59C C76A U148G, which “polymerase ribozyme fitness (log ratio)” value is on record?
The value was at most -4.2.
